This is an account of results in paper PMC11722347 (bioRxiv, 2025).

This assay concerns the target histone H4 (Xenopus laevis), in the nucleosome (Xenopus laevis, UniProt P62799). Nature of the assay: cryo-EM structure.

B1: human SNF2H (enzyme)
chain: MSSAAEPPPPPPPESAPSKPAASIASGGSNSSNKGGPEGVAAQAVASAASAGPADAEMEEIFDDASPGKQKEIQEPDPTYEEKMQTDRANRFEYLLKQTELFAHFIQPAAQKTPTSPLKMKPGRPRIKKDEKQNLLSVGDYRHRRTEQEEDEELLTESSKATNVCTRFEDSPSYVKWGKLRDYQVRGLNWLISLYENGINGILADEMGLGKTLQTISLLGYMKHYRNIPGPHMVLVPKSTLHNWMSEFKRWVPTLRSVCLIGDKEQRAAFVRDVLLPGEWDVCVTSYEMLIKEKSVFKKFNWRYLVIDEAHRIKNEKSKLSEIVREFKTTNRLLLTGTPLQNNLHELWSLLNFLLPDVFNSADDFDSWFDTNNCLGDQKLVERLHMVLRPFLLRRIKADVEKSLPPKKEVKIYVGLSKMQREWYTRILMKDIDILNSAGKMDKMRLLNILMQLRKCCNHPYLFDGAEPGPPYTTDMHLVTNSGKMVVLDKLLPKLKEQGSRVLIFSQMTRVLDILEDYCMWRNYEYCRLDGQTPHDERQDSINAYNEPNSTKFVFMLSTRAGGLGINLATADVVILYDSDWNPQVDLQAMDRAHRIGQTKTVRVFRFITDNTVEERIVERAEMKLRLDSIVIQQGRLVDQNLNKIGKDEMLQMIRHGATHVFASKESEITDEDIDGILERGAKKTAEMNEKLSKMGESSLRNFTMDTESSVYNFEGEDYREKQKIAFTEWIEPPKRERKANYAVDAYFREALRVSEPKAPKAPRPPKQPNVQDFQFFPPRLFELLEKEILFYRKTIGYKVPRNPELPNAAQAQKEEQLKIDEAESLNDEELEEKEKLLTQGFTNWNKRDFNQFIKANEKWGRDDIENIAREVEGKTPEEVIEYSAVFWERCNELQDIEKIMAQIERGEARIQRRISIKKALDTKIGRYKAPFHQLRISYGTNKGKNYTEEEDRFLICMLHKLGFDKENVYDELRQCIRNSPQFRFDWFLKSRTAMELQRRCNTLITLIERENMELEEKEKAEKKKRGPKPSTQKRKMDGAPDGRGRKKKLKL
B1: the binding result is recorded as “binds”.
